From the CheMixHub ionic liquid set
± gives the uncertainty stated by the source. Further values from the same series stand in other lists.

Experiment: xn = mol fraction of the nth substance listed
Settings: 100 kPa

CCCC[n+]1ccn(C)c1.F[B-](F)(F)F + O
x1 = 0.6023
Settings	viscosity [mPa·s]
318 K	12.1 ± 0.26
323 K	10.66 ± 0.23

CC[n+]1ccn(C)c1.N#C[N-]C#N + OCC(F)(F)F + CCO
viscosity [mPa·s]
Settings	318.15 K	323.15 K
x1 = 0.0355, x2 = 0.8508	–	0.1 ± 0.2
x1 = 0.0692, x2 = 0.8058	–	0.5 ± 0.2
x1 = 0.1059, x2 = 0.7569	–	0.9 ± 0.2
x1 = 0.1341, x2 = 0.7174	–	1.2 ± 0.6
x1 = 0.1703, x2 = 0.668	1.68 ± 0.6	1.55 ± 0.6
x1 = 0.2026, x2 = 0.6226	1.99 ± 0.6	1.84 ± 0.6
x1 = 0.2373, x2 = 0.574	2.31 ± 0.6	2.13 ± 0.6
x1 = 0.2705, x2 = 0.5266	2.59 ± 0.6	2.39 ± 0.6
x1 = 0.3059, x2 = 0.4761	2.88 ± 0.6	2.66 ± 0.6
x1 = 0.3367, x2 = 0.4558	3.11 ± 0.6	2.86 ± 0.6
x1 = 0.3741, x2 = 0.4288	3.38 ± 0.6	3.1 ± 0.6
x1 = 0.4093, x2 = 0.4055	3.61 ± 0.6	3.31 ± 0.6
x1 = 0.4361, x2 = 0.3894	3.78 ± 0.6	3.46 ± 0.6
x1 = 0.4751, x2 = 0.3581	4.02 ± 0.6	3.67 ± 0.6
x1 = 0.5091, x2 = 0.3393	4.21 ± 0.6	3.85 ± 0.6
x1 = 0.539, x2 = 0.314	4.37 ± 0.6	3.99 ± 0.6
x1 = 0.576, x2 = 0.2854	4.57 ± 0.6	4.16 ± 0.6
x1 = 0.6046, x2 = 0.2689	4.71 ± 0.6	4.29 ± 0.6
x1 = 0.6344, x2 = 0.2517	4.86 ± 0.6	4.43 ± 0.6
x1 = 0.673, x2 = 0.2236	5.04 ± 0.6	4.6 ± 0.6
x1 = 0.7094, x2 = 0.2009	5.22 ± 0.6	4.75 ± 0.6
x1 = 0.7331, x2 = 0.1948	5.33 ± 0.6	4.86 ± 0.6
x1 = 0.7722, x2 = 0.1661	5.51 ± 0.6	5.03 ± 0.6
x1 = 0.8061, x2 = 0.1434	5.67 ± 0.6	5.19 ± 0.6
